The results in this text go back to ChEMBL document CHEMBL4888484, “Replenishing the malaria drug discovery pipeline: Screening and hit evaluation of the MMV Hit Generation Library 1 (HGL1) against asexual blood stage Plasmodium falciparum ,using a nano luciferase reporter read-out” (2022).

Screen size: about 150,000 compounds; about 540 (0.36%) showed an effect of 50% or more. The list shows a part of the results.

The test has as its system Plasmodium falciparum. Kind of test: Primary screen in NF54 nanoGlo assay, in single point, at 2uM, 72h; a lower Z score goes with more inhibition. The conditions noted are these: timepoint 72 hour. The test is classed as functional, Erythrocyte.
For the molecule `O=C(NC1CCC2OCCOC2C1)c1ccc(Cl)s1` (centres undefined), the “% Inhibition” value is recorded as -4% and the Z score turned out to be 0.82.
In the same order, the values of `NC(C(=O)NCC1CC2C=CC1CC2)C1CCC1` (centres undefined) are 0% and 0.03.
With `CCNC(=O)N1CCO[C@@H](Cc2ccccc2Cl)C1`, the “% Inhibition” value is -3% and the Z score amounted to 0.47.
In the same order, the values of `Cc1cc(NC(=O)N2C[C@@H]3[C@H](C2)[C@H]2CC[C@@H]3O2)n(C2CCCCC2)n1` are -9% and 1.6.
`O=C(CN1CCCC1=O)N[C@H]1CCc2ccccc21`: the “% Inhibition” value was -6% and the Z score is listed as 0.71.
In the same order, the values of `O=C(C1COc2ccccc2O1)N1CCC(n2cnc3ccccc32)C1` (centres undefined) are 2% and -0.27.
In the same order, the values of `CCOc1ccc(NC(=O)N2C[C@@H]3CCC[C@H](C2)C(=O)N3)cc1C(F)(F)F` are -11% and 1.05.
In the same order, the values of `CCC(=O)Nc1ccc2c(c1)cc(C(=O)N1CCN(CC)CC1)n2Cc1cccc(F)c1` are -9% and 1.1.
`O=C(CN1CCN(c2c(F)c(F)c(F)c(F)c2F)CC1)N1CCNC1=O`: the “% Inhibition” value is given as 29% and the Z score is -3.25.
For `CCN(CC)C(=O)c1ccccc1NC(=O)c1cc(C)c2c(c1)-c1ccccc1S(=O)(=O)N2C`, in that order: -1% and 0.12.
In the same order, the values of `CS(=O)(=O)N1CCC(C(=O)N2CCN(c3nccn4nc5c(c34)CCCC5)CC2)CC1` are -14% and 1.82.
With `COC(C)(C)[C@]12CC(O)(c3ccccc3)ON1[C@H]1CCCCC1N2O` (some centres undefined), the “% Inhibition” value is on record as -12% and the Z score was 1.53.
For `C[C@H]1COCCN1Cc1csc(-c2ccco2)n1`, in that order: -2% and 0.34.
Consider `CCN(CC(=O)O)C(=O)C1CCCCCC1`, for which the “% Inhibition” value was 1% and the Z score is -0.11.
For `C[C@@H](C(=O)N1CCCc2ccccc21)S(=O)(=O)Cc1nc(Cc2ccccc2)no1`, in that order: 0% and -0.03.
For `CCc1ccc(S(=O)(=O)N2CCC(n3nccn3)CC2)s1`, in that order: -10% and 1.14.
`COc1cccc(CC(=O)N2C[C@H](c3nc(-c4cccnc4)no3)[C@@H](C)C2)c1`: the “% Inhibition” value was -2% and the Z score was 0.26.
For `O=C(c1ccc(F)c(Cl)c1)N1C[C@@H](CN2CCCCCC2)[C@@H](CO)C1`, in that order: -7% and 1.11.
In the same order, the values of `CCc1noc(C)c1C(=O)N[C@@H](C)c1cnn(-c2ccc(OC)cc2)c1C` are -24% and 2.57.
For `Cc1ccc(NC(=O)CN2CCC(CNC(=O)c3ccccn3)CC2)c(C)c1`, in that order: -27% and 2.66.
For `CCOC(=O)N(C)C1CCN(Cc2ncc(C(C)C)o2)CC1`, the “% Inhibition” value was 2% and the Z score was -0.29.
In the same order, the values of `Cc1nc(-c2ccc(Cl)c(S(=O)(=O)N3CCC(C(=O)NC4CCCCCC4)CC3)c2)no1` are -8% and 1.02.
